# Assay results: the supplement of paper PMC9588766
# Structures can show the parent of a compound that is named as a salt. Over roughly 1,900 compounds, “cell viability of compound + 1 nM pemigatinib relative to pemigatinib-only (DMSO) wells” has its median near 0.95; the lowest 2% begin near 0.22. The list shows a part of the results.
# Tested on: PDC-DUC18828
# Experiment: cell viability of compound + 1 nM pemigatinib relative to pemigatinib-only (DMSO) wells (fraction); PDC-DUC18828 is a patient-derived cholangiocarcinoma cell line; higher = less growth inhibition
# Conditions: first compound 1 µM; pemigatinib concentration 1 nM; 72 h
# Description: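 Selleck Bioactive library screen in the patient-derived FGFR2 fusion-positive ICC cell line PDC-DUC18828 (500 cells/well). Each compound was tested at 1 uM with 1 nM pemigatinib, in triplicate, for 72 h. Viability was read by CellTiter-Glo and normalised to plate DMSO controls. Value is the paper's averaged normalised viability.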
row,SMILES,cell viability
1,CC1(C)[C@@H](O)CC[C@]2(C)[C@H]3C(=O)C=C4[C@@H]5C[C@@](C)(C(=O)O)CC[C@]5(C)CC[C@@]4(C)[C@]3(C)CC[C@@H]12 [Enoxolone] + CCN1C(=O)N(c2c(F)c(OC)cc(OC)c2F)Cc2cnc3[nH]c(CN4CCOCC4)cc3c21 [pemigatinib],0.937
2,COCCOC(=O)C1=C(C)NC(C)=C(C(=O)OC(C)C)C1c1cccc([N+](=O)[O-])c1 (centres undefined) [Nimodipine] + CCN1C(=O)N(c2c(F)c(OC)cc(OC)c2F)Cc2cnc3[nH]c(CN4CCOCC4)cc3c21 [pemigatinib],0.984
3,NCCS [Cysteamine HCl] + CCN1C(=O)N(c2c(F)c(OC)cc(OC)c2F)Cc2cnc3[nH]c(CN4CCOCC4)cc3c21 [pemigatinib],1.02
4,CN1C(C(=O)Nc2ccccn2)=C(O)c2ccccc2S1(=O)=O [Piroxicam] + CCN1C(=O)N(c2c(F)c(OC)cc(OC)c2F)Cc2cnc3[nH]c(CN4CCOCC4)cc3c21 [pemigatinib],1.08
5,COc1c(C)c2c(c(O)c1C/C=C(\C)CCC(=O)OCCN1CCOCC1)C(=O)OC2 [Mycophenolate Mofetil] + CCN1C(=O)N(c2c(F)c(OC)cc(OC)c2F)Cc2cnc3[nH]c(CN4CCOCC4)cc3c21 [pemigatinib],0.546
6,O=C(NCc1cccc(O)c1)Nc1nc(-c2ccncc2)cs1 + CCN1C(=O)N(c2c(F)c(OC)cc(OC)c2F)Cc2cnc3[nH]c(CN4CCOCC4)cc3c21 [pemigatinib],0.912
7,COC(=O)CCc1ccc(OCC(O)CNC(C)C)cc1 (centres undefined) [Esmolol HCl] + CCN1C(=O)N(c2c(F)c(OC)cc(OC)c2F)Cc2cnc3[nH]c(CN4CCOCC4)cc3c21 [pemigatinib],0.933
8,O=C(O)c1ccc(-n2nc(-c3ccccc3O)nc2-c2ccccc2O)cc1 [Deferasirox] + CCN1C(=O)N(c2c(F)c(OC)cc(OC)c2F)Cc2cnc3[nH]c(CN4CCOCC4)cc3c21 [pemigatinib],0.931
9,Cc1ccc(Sc2ccccc2N2CCNCC2)c(C)c1 + CCN1C(=O)N(c2c(F)c(OC)cc(OC)c2F)Cc2cnc3[nH]c(CN4CCOCC4)cc3c21 [pemigatinib],0.905
10,C[C@H](NC(=O)CCc1nc2ccccc2c(=O)[nH]1)c1ccccc1 + CCN1C(=O)N(c2c(F)c(OC)cc(OC)c2F)Cc2cnc3[nH]c(CN4CCOCC4)cc3c21 [pemigatinib],0.971
11,NCC(=O)CCC(=O)O [5-Aminolevulinic acid HCl] + CCN1C(=O)N(c2c(F)c(OC)cc(OC)c2F)Cc2cnc3[nH]c(CN4CCOCC4)cc3c21 [pemigatinib],0.909
12,CN1CCC(CNc2ccc3ncc(-c4cccc(OC(F)(F)F)c4)n3n2)CC1 [SGI-1776 free base] + CCN1C(=O)N(c2c(F)c(OC)cc(OC)c2F)Cc2cnc3[nH]c(CN4CCOCC4)cc3c21 [pemigatinib],0.886
13,O=C(CCCN1CCC(O)(c2ccc(Cl)cc2)CC1)c1ccc(F)cc1 [Haloperidol] + CCN1C(=O)N(c2c(F)c(OC)cc(OC)c2F)Cc2cnc3[nH]c(CN4CCOCC4)cc3c21 [pemigatinib],0.994
14,COc1cc2c(cc1OC)[C@@H]1Cc3ccc(OC)c(OC)c3CN1CC2 [Rotundine] + CCN1C(=O)N(c2c(F)c(OC)cc(OC)c2F)Cc2cnc3[nH]c(CN4CCOCC4)cc3c21 [pemigatinib],0.866
15,Cc1ccc(C)c(OCCCC(C)(C)C(=O)O)c1 [Gemfibrozil] + CCN1C(=O)N(c2c(F)c(OC)cc(OC)c2F)Cc2cnc3[nH]c(CN4CCOCC4)cc3c21 [pemigatinib],1.04
16,COc1ccc([C@@H]2Sc3ccccc3N(CCN(C)C)C(=O)[C@@H]2OC(C)=O)cc1 [Diltiazem HCl] + CCN1C(=O)N(c2c(F)c(OC)cc(OC)c2F)Cc2cnc3[nH]c(CN4CCOCC4)cc3c21 [pemigatinib],0.936
17,Cc1cn([C@H]2C[C@H](N=[N+]=[N-])[C@@H](CO)O2)c(=O)[nH]c1=O [Zidovudine] + CCN1C(=O)N(c2c(F)c(OC)cc(OC)c2F)Cc2cnc3[nH]c(CN4CCOCC4)cc3c21 [pemigatinib],0.971
18,CC(=O)c1cc([N+](=O)[O-])c(Sc2ccc(F)cc2F)s1 + CCN1C(=O)N(c2c(F)c(OC)cc(OC)c2F)Cc2cnc3[nH]c(CN4CCOCC4)cc3c21 [pemigatinib],0.952
19,NS(=O)(=O)Cc1noc2ccccc12 [Zonisamide] + CCN1C(=O)N(c2c(F)c(OC)cc(OC)c2F)Cc2cnc3[nH]c(CN4CCOCC4)cc3c21 [pemigatinib],1.02
20,C=CCc1ccc(O)c(-c2cc(CC=C)ccc2O)c1 [Magnolol] + CCN1C(=O)N(c2c(F)c(OC)cc(OC)c2F)Cc2cnc3[nH]c(CN4CCOCC4)cc3c21 [pemigatinib],0.903

row,SMILES,cell viability
1,COc1ccc2c(c1)C(=O)N(CCc1ccc(S(=O)(=O)NC(=O)NC3CCCCC3)cc1)C(=O)C2(C)C [Gliquidone] + CCN1C(=O)N(c2c(F)c(OC)cc(OC)c2F)Cc2cnc3[nH]c(CN4CCOCC4)cc3c21 [pemigatinib],0.869
2,COc1ccc(C[C@H](NC(=O)[C@H](C)NC(=O)CN2CCOCC2)C(=O)N[C@@H](Cc2ccccc2)C(=O)[C@@]2(C)CO2)cc1 + CCN1C(=O)N(c2c(F)c(OC)cc(OC)c2F)Cc2cnc3[nH]c(CN4CCOCC4)cc3c21 [pemigatinib],0.0172
3,CC(C[N+](C)(C)C)OC(N)=O (centres undefined) [Bethanechol chloride] + CCN1C(=O)N(c2c(F)c(OC)cc(OC)c2F)Cc2cnc3[nH]c(CN4CCOCC4)cc3c21 [pemigatinib],0.964
4,Cc1c(NC(=O)OC[C@@H]2COCCN2)cn2ncnc(Nc3ccc4c(cnn4Cc4cccc(F)c4)c3)c12 + CCN1C(=O)N(c2c(F)c(OC)cc(OC)c2F)Cc2cnc3[nH]c(CN4CCOCC4)cc3c21 [pemigatinib],0.903
5,Cc1ccc2nc(NCCN)c3ncc(C)n3c2c1 + CCN1C(=O)N(c2c(F)c(OC)cc(OC)c2F)Cc2cnc3[nH]c(CN4CCOCC4)cc3c21 [pemigatinib],1.03
6,COc1ccc(CCc2nc3cc(-c4c(C)noc4C)ccc3n2C[C@H](C)N2CCOCC2)cc1Cl + CCN1C(=O)N(c2c(F)c(OC)cc(OC)c2F)Cc2cnc3[nH]c(CN4CCOCC4)cc3c21 [pemigatinib],0.913
7,O=C(O)c1cc2cccc([N+](=O)[O-])c2[nH]1 + CCN1C(=O)N(c2c(F)c(OC)cc(OC)c2F)Cc2cnc3[nH]c(CN4CCOCC4)cc3c21 [pemigatinib],0.912
8,"CC(=O)C1=C(O)C=C2Oc3c(C(C)=O)c(O)c(C)c(O)c3C2(C)C1=O (single isomer, unassigned; (+)) [(+)-Usniacin] + CCN1C(=O)N(c2c(F)c(OC)cc(OC)c2F)Cc2cnc3[nH]c(CN4CCOCC4)cc3c21 [pemigatinib]",1.06
9,CNCc1ccc(-c2[nH]c3cc(F)cc4c3c2CCNC4=O)cc1 + CCN1C(=O)N(c2c(F)c(OC)cc(OC)c2F)Cc2cnc3[nH]c(CN4CCOCC4)cc3c21 [pemigatinib],0.958
10,CCCNC(C)C(=O)Nc1c(C)csc1C(=O)OC (centres undefined) [Articaine HCl] + CCN1C(=O)N(c2c(F)c(OC)cc(OC)c2F)Cc2cnc3[nH]c(CN4CCOCC4)cc3c21 [pemigatinib],0.942
11,CN(C)c1ccc(-c2nc3ncc(Cl)c(N4CCN(CC(=O)Nc5nccs5)CC4)c3[nH]2)cc1 + CCN1C(=O)N(c2c(F)c(OC)cc(OC)c2F)Cc2cnc3[nH]c(CN4CCOCC4)cc3c21 [pemigatinib],1.02
12,Oc1nc(-c2ccc(C(F)(F)F)cc2)nc2c1CSCC2 + CCN1C(=O)N(c2c(F)c(OC)cc(OC)c2F)Cc2cnc3[nH]c(CN4CCOCC4)cc3c21 [pemigatinib],0.919
13,Cc1nc2ccc(NC(=O)Nc3ccnc4cccnc34)cc2o1 + CCN1C(=O)N(c2c(F)c(OC)cc(OC)c2F)Cc2cnc3[nH]c(CN4CCOCC4)cc3c21 [pemigatinib],0.964
14,NC(=O)N1c2ccccc2CC(=O)c2ccccc21 [Oxcarbazepine] + CCN1C(=O)N(c2c(F)c(OC)cc(OC)c2F)Cc2cnc3[nH]c(CN4CCOCC4)cc3c21 [pemigatinib],0.963
15,NC1=NCC2c3ccccc3Cc3ccccc3N12 (centres undefined) [Epinastine HCl] + CCN1C(=O)N(c2c(F)c(OC)cc(OC)c2F)Cc2cnc3[nH]c(CN4CCOCC4)cc3c21 [pemigatinib],0.912
16,O=C(c1ccc(F)cc1)N1CCC[C@H](c2nc(-c3ccc(F)cc3)no2)C1 + CCN1C(=O)N(c2c(F)c(OC)cc(OC)c2F)Cc2cnc3[nH]c(CN4CCOCC4)cc3c21 [pemigatinib],0.976
17,Cc1ccc(Cl)cc1N(CC(=O)Nc1c(F)cccc1F)S(C)(=O)=O + CCN1C(=O)N(c2c(F)c(OC)cc(OC)c2F)Cc2cnc3[nH]c(CN4CCOCC4)cc3c21 [pemigatinib],1.03
18,CN(C)c1cc(NC(=O)CNC(C)(C)C)c(O)c2c1C[C@H]1C[C@H]3[C@H](N(C)C)C(O)=C(C(N)=O)C(=O)[C@@]3(O)C(O)=C1C2=O [Tigecycline] + CCN1C(=O)N(c2c(F)c(OC)cc(OC)c2F)Cc2cnc3[nH]c(CN4CCOCC4)cc3c21 [pemigatinib],1.01
19,CCNc1nc(Nc2cc(F)c(C(=O)N3CCOCC3)cc2OC)ncc1C(F)(F)F + CCN1C(=O)N(c2c(F)c(OC)cc(OC)c2F)Cc2cnc3[nH]c(CN4CCOCC4)cc3c21 [pemigatinib],0.954
